The record followed here is US12433952B2, “Antibody-drug conjugates targeting folate receptor alpha and methods of use” (ZYMEWORKS BC INC., priority 2022, dated 2025).

The EC50 is the concentration needed to bring the measured effect to its halfway point.

Data set [1] concerns FRα-negative MDA-MB-468 cells co-cultured with FRα-positive JEG-3. The experiment in a line: Bystander activity of ADCs (mono-culture vs co-culture, flow cytometry). The class given is cell-based. The note with it: mono-culture viability compared with co-culture viability, 2 nM ADC, 4 days. Here is the method: The ability of the humanized variant v30384 conjugated to various drug-linkers to exert a bystander killing effect on cancer cells was assessed according to the method described below. Bystander killing most commonly occurs after target-specific uptake of an ADC into an antigen-positive cell. Trafficking and degradation of the ADC results in release of active catabolite free drug, which then crosses the cell membrane of nearby cells to elicit cell death.
FRα-positive JEG-3 and FRα-negative MDA-MB-468 cells were seeded either as mono-cultures or co-cultures in a 48-well plate at 20,000 cells and 10,000 cells, respectively, in 100 μL assay media (Minimum Essential Media supplemented with 10% Fetal Bovine Serum (both from Thermo Fisher Scientific, Waltham, MA)). ADCs were diluted to 4 nM in assay media and 100 μL was added to the cell-containing plates (2 nM final ADC concentration). Cells were incubated with ADCs for 4 days under standard culturing conditions (37° C./5% C02). Following incubation, cells were dissociated, washed, and stained using a viability dye, YO—PRO®-1 (ThermoFisher Scientific, Waltham, MA), and an anti-FRα antibody, mirvetuximab (v17716), conjugated to Alexa Fluor®647, for 20 minutes at 4° C. After incubation, cells were washed in FACS buffer (phosphate buffered saline pH 7.4 (ThermoFisher Scientific, Waltham, MA) supplemented with 2% FBS), resuspended in 70 μL FACS buffer per well, and 35 μL per well were analyzed on a BD LSRFortessa™ Cell Analyzer (BD Biosciences, Franklin Lake, NJ). Dead cells were excluded by gating on YO—PRO®-1 staining. The number of JEG-3 and MDA-MB-468 cells were determined by the number of events in the Alexa Fluor®647 positive (FRα-positive) and Alexa Fluor®647 negative (FRα-negative) gates, respectively. Percent viability was calculated as the number of cells in treatment condition divided by the number of cells in the no-treatment condition.
On the technique in general: In flow cytometry, cells or beads pass a laser one at a time.

Another data set deals with NCI-H2110 CDX xenograft. The experiment in a line: In vivo anti-tumor activity, NCI-H2110 CDX model. The note with it: 6 mg/kg single IV dose, DAR 8. Further details: species or system mouse. The procedure:
(§1) The in vivo anti-tumor activities of humanized variant v30384 conjugated to various drug-linkers were assessed in a numberofxenograft models as describedbelow.
(§2) All ADCs were DAR 8. For each xenograft study, tumor volume and body weight of the animals were measured twice weekly.
For the NCI-H21 10 CDX model study, tumor cell suspensions (1×10^7 cells in 0.1 ml 50% Matrigel®) were implanted subcutaneously into CB. 17 SCID mice. When mean tumor volume reached ˜140 mm^3 the animals were randomly assigned to groups (n=6 per group) and treated with a single IV dose of test article on study day 0 as shown in Table 28.1.

In data set [2] the test system is MDA-MB-468 (breast adenocarcinoma; FRα-negative). Nature of the data set: In vitro cytotoxicity of ADCs, 2D monolayer (CellTiter-Glo). It is filed as cell-based. The note with it: 4 days, DAR 8, FRα-negative. The procedure: The cell growth inhibition (cytotoxicity) capabilities of the humanized variant v30384 conjugated to various drug-linkers were assessed in a panel of FRα-expressing cell lines as described below. Cell lines used were KB—HeLa (endocervical carcinoma), JEG-3 (choriocarcinoma), T-47D (breast carcinoma) and MDA-MB-468 (breast adenocarcinoma; FRα-negative).
Briefly, cells were seeded in 384-well plates and treated with a titration of test article, generated in cell growth medium. Cells were incubated for 4 days under standard culturing conditions. After incubation, CellTiter-Glo® reagent (Promega Corporation, Madison, WI) was spiked in all wells and luminescence corresponding to ATP present in each well was measured using a Synergy™ H1 plate reader (BioTek Instruments, Winooski, VT). Based on blank wells (no test article added), % cytotoxicity values were calculated and plotted against test article concentration using GraphPad Prism 9 software (GraphPad Software, San Diego, CA).
(ATP-based viability assays read luminescence as a measure of living cells.)

Data set [3] can be described thus: Pharmacokinetics of ADCs in NCI-H2110 tumor-bearing mice (total IgG ELISA). It is filed as in vivo, mouse. The settings on record: NCI-H2110 model, 6 mg/kg single IV dose, total IgG in serum. The procedure:
(§3) Serum was collected from the xenograft studies described in Example 28, as noted, and analyzed for the pharmacokinetics (PK) of the ADCs as described below.
(§4) Absorbance at 450 nm was measured using a Synergy™ H1 Hybrid Multi-Mode Plate Reader (BioTek Instruments, Winooski, VT). Pharmacokinetics parameters were calculated from non-compartmental analysis using Phoenix WinNonlin™ software (Certara, Princeton, NJ).

A short description of data set [4]: Pharmacokinetics of ADCs in OV90 tumor-bearing mice (total IgG ELISA). The class given is in vivo, mouse. The settings on record: OV90 #2 model, 3 mg/kg single IV dose, total IgG in serum. Here is the method:
as §3, §4
On the technique in general: In an ELISA, binding on a coated surface is turned into a signal by an enzyme label.

A short description of data set [5]: Murine tolerability study (Balb/c). It is filed as in vivo, mouse. The procedure:
ADCs comprising humanized variant v30384 conjugated to various drug-linkers as shown in Table 30.1 were assessed for tolerability in mice at single doses of 60 and 200 mg/kg as described below.
Test articles were administered to mice (Balb/c, female, 6-8 weeks old, -20g) via 20 ml/kg intraperitoneal injections at 60 and 200 mg/kg. From each dose group, 3 mice were subject to planned observation for 3 weeks post-dose. An additional 3 mice were subject to planned observation for 1 week post-dose, followed by termination and examination of formalin-fixed, paraffin-embedded organs. Mice were euthanized if body weight fell by ≥20% from pre-dose levels. Serum collection was planned for all mice at 24 hr and 7 day post-dose for pharmacokinetic analysis.

In a further data set the test system is OV90 xenograft. Nature of the data set: In vivo anti-tumor activity, OV90 model study #2. Further details: species or system mouse. The note with it: OV90 study #2, 3 mg/kg single IV dose, DAR 8. Here is the method: as §1, §2
For the OV90 model studies #1 and #2, tumor cell suspensions (1×10^7 cells in 0.1 ml 50% Matrigel®) were implanted subcutaneously into female CB. 17 SCID mice. When mean tumor volume reached 100-150 mm^3, the animals were randomly assigned to groups (n=6 per group for study #1, and n=8 per group for study #2) and treated on study day 1 with a single IV dose of test article as shown in Table 28.1. Serum was collected at a number of timepoints for PK analysis.

For data set [6], the system named is EBC-1 (lung carcinoma; FRα-negative) spheroids. The experiment in a line: In vitro cytotoxicity of ADCs, 3D spheroids (CellTiter-Glo 3D). It is filed as cell-based. The settings on record: EBC-1 (FRα-negative) spheroids, 6-day treatment, DAR 8. The procedure: The 3D cytotoxicity capabilities of the humanized variant v30384 conjugated to various drug-linkers as shown in Table 27.1 were assessed in a panel of FRα-expressing cell line spheroids as described below. Spheroids provide a three-dimensional organization of cells with layers of distinct cell populations and the formation of different gradients from the outer to the inner regions. Cell signaling is more complex in spheroids than in two-dimensional cell cultures. As a result of these features, spheroids have the potential to recapitulate drug resistance and metabolic adaptation.
Cell lines used were IGROV-1 (ovarian adenocarcinoma), T-47D (breast carcinoma), OVCAR-3 (ovarian adenocarcinoma), HEC-1-A (uterine adenocarcinoma) and EBC-1 (lung carcinoma; FRα-negative).
Briefly, cells were seeded in Ultra-Low Attachment 384-well plates, centrifuged and incubated under standard culturing conditions to allow for spheroid formation and growth. Monoculture cell line spheroids were then treated with a titration of test article, generated in cell growth medium. Spheroids were incubated for 6 days under standard culturing conditions. After incubation, CellTiter-Glo® 3D reagent (Promega Corporation, Madison, WI) was spiked in all wells. Plates were incubated in the dark at room temperature for 1 hour and luminescence was quantified using a BioTek Cytation 5 Cell Imaging Multi-Mode Reader (Agilent Technologies, Inc., Santa Clara, CA). Based on blank wells (no test article added), percent cytotoxicity values were calculated and plotted against test article concentration using GraphPad Prism 9 software (GraphPad Software, San Diego, CA).

B1: v30384-MT-GGFG-Compound 140 (conjugate)
heavy 1: EVQLLESGGGLVQPGGSLRLSCAVSGFSLSSYGVSWVRQAPGKGLEWIGAVNSGGSAYYADSVKGRSTISRDNSKNTVYLQMNSLRAEDTAVYYCARSGSGYPMDYLAIWGQGTLVTVSSASTKGPSVFPLAPSSKSTSGGTAALGCLVKDYFPEPVTVSWNSGALTSGVHTFPAVLQSSGLYSLSSVVTVPSSSLGTQTYICNVNHKPSNTKVDKKVEPKSCDKTHTCPPCPAPELLGGPSVFLFPPKPKDTLMISRTPEVTCVVVDVSHEDPEVKFNWYVDGVEVHNAKTKPREEQYNSTYRVVSVLTVLHQDWLNGKEYKCKVSNKALPAPIEKTISKAKGQPREPQVYVYPPSRDELTKNQVSLTCLVKGFYPSDIAVEWESNGQPENNYKTTPPVLDSDGSFALVSKLTVDKSRWQQGNVFSCSVMHEALHNHYTQKSLSLSPG
heavy 2: EVQLLESGGGLVQPGGSLRLSCAVSGFSLSSYGVSWVRQAPGKGLEWIGAVNSGGSAYYADSVKGRSTISRDNSKNTVYLQMNSLRAEDTAVYYCARSGSGYPMDYLAIWGQGTLVTVSSASTKGPSVFPLAPSSKSTSGGTAALGCLVKDYFPEPVTVSWNSGALTSGVHTFPAVLQSSGLYSLSSVVTVPSSSLGTQTYICNVNHKPSNTKVDKKV[human IgG1 Fc with changes not written out]
light: DYQMTQSPSSVSASVGDRVTITCRASQSIGDWLAWYQQKPGKAPKLLIYEASTLASGVPSRFSGSGSGTDFTLTISSVQPEDAATYYCQQGYGRSNVDNIFGGGTKVEVKRTVAAPSVFIFPPSDEQLKSGTASVVCLLNNFYPREAKVQWKVDNALQSGNSQESVTEQDSKDSTYSLSSTLTLSKADYEKHKVYACEVTHQGLSSPVTKSFNRGEC
Consider B1, for which the “% Bystander Activity” value in data set [1] turned out to be 51.8%. Moreover, the entries for the “effect on tumor growth” value in the data set on NCI-H2110 CDX xenograft and in the data set with OV90 xenograft were “stasis of tumor growth for approximately 2 weeks post-dose” and “tumor regressions”, respectively. Also, the EC50 in data set [2] worked out at 23.3 nM. Further, the Half-life in data set [3] was determined as 115 h; in data set [4], 141 h. Also, in data set [5] (60 and 200 mg/kg), the “treatment related microscopic findings” value is “present in intestine, bone marrow, thymus, spleen and mesenteric lymph node”. In addition, the treatment-related macroscopic changes entry in data set [5] (60 or 200 mg/kg) is “Macroscopic changes considered related to the ADCs were present in preterminal animals”. Moreover, the “tolerability (body weight, mortality)” value in data set [5] (single intraperitoneal doses of 60 and 200 mg/kg, Balb/c mice) is recorded as “rapid body weight loss, mortality or sacrifice due to moribund condition between 3-6 days post dose”.

B2: v30384-MC-GGFG-AM-Compound 141 (conjugate)
heavy 1: B1 heavy 1
heavy 2: EVQLLESGGGLVQPGGSLRLSCAVSGFSLSSYGVSWVRQAPGKGLEWIGAVNSGGSAYYADSVKGRSTISRDNSKNTVYLQMNSLRAEDTAVYYCARSGSGYPMDYLAIWGQGTLVTVSSASTKGPSVFPLAPSSKSTSGGTAALGCLVKDYFPEPVTVSWNSGALTSGVHTFPAVLQSSGLYSLSSVVTVPSSSLGTQTYICNVNHKPSNTKVDKKV[human IgG1 Fc with changes not written out]
light: B1 light
Take B2: the concentration giving a half-maximal response (EC50) in data set [6] worked out at 12.8 nM; in data set [2], 83.2 nM. The entries for the “effect on tumor growth” value in the data set with NCI-H2110 CDX xenograft and in the data set on OV90 xenograft were “did not result in significant tumor growth rate inhibition” and “tumor regressions”, respectively. Further, the Half-life in data set [3] stood at 44.9 h; in data set [4], 124 h.
